{"source": "patent US20200390902A1", "about": "“Antibody-Drug Conjugates Targeted at Human Aspartyl-(Asparaginyl)-B-Hydroxylase (HAAH)” (Panacea Pharmaceuticals, Inc., priority 2017, published 2020)", "molecules": {"B1": {"name": "SNS622: high-affinity, fully-humanized monoclonal antibody against human aspartyl (asparaginyl) beta-hydroxylase; SEQ ID NO: 1 and 2 (antibody)", "heavy": "QVQLQQSGPGLVKPSQTLSLTCAISGDSVSSNSAAWNWIRQSPSRGLEWLGRTYYRSKWYNDYAVSVKSRITINPDTSKNQFSLQLNSVTPEDTAVYYCARTGYSSSWVVNFDYWGQGTLVTVSSASTKGPSVFPLAPSSKSTSGGTAALGCLVKDYFPEPVTVSWNSGALTSGVHTFPAVLQSSGLYSLSSVVTVPSSSLGTQTYICNVNHKPSNTKVDKRV[human IgG1 Fc left out]", "light": "QPVLTQSPSASGTPGQRVTISCSGSSSNIGSNYVYWYQQLPGTAPKLLIYKNNQRPSGVPDRFSGSKSGTAASLAISGLQSEDEADYYCAAWDDSLRGYVFGTGTKLTVLGQPKAAPSVTLFPPSSEELQANKATLVCLISDFYPGAVTVAWKADSSPVKAGVETTTPSKQSNNKYAASSYLSLTPEQWKSHRSYSCQVTHEGSTVEKTVAPTECS", "modifications": "Heavy Chain; Light Chain"}}, "key": {"[1]": {"system": "metastatic nodules in the lungs (PDAC PDx)", "assay": "PDx model of PDAC, lung metastasis", "format": "in vivo, mouse", "details": "1.9 mg/kg, after 6 weeks of administration", "excerpt": "Pancreatic ductular adenocarcinoma (PDAC) is a highly lethal malignancy with limited treatment options. HAAH is a cell surface protein that is highly expressed in […] of PDACs. The specificity of SNS622-MC-DM1 was next examined in the patient-derived xenograft (PDx) mouse model PDAC. The patient-derived xenograft (PDx) murine model was established by using surgically resected PDAC (from Rhode Island Hospital, Providence, R.I., U.S.A.). Five to six-week-old female Nod Scid Gamma (NSG) mice were employed. […] Body weight and tumor size were measured twice a week and tumor volume was calculated using the modified ellipsoid formula (0.5×length×width^2). To determine the effect of SNS622-MC-DM1 on lung metastasis, all lung tissues were immersed in Bouin's fixative solution (Sigma-Aldrich, St. Louis, Mo., U.S.A.; catalog No, HT10132) and metastatic nodules on the surface of the lungs were counted. […]\nThis phenotype was maintained in the PDx model of NSG mouse. […] In this context, dose and period of administration of PAN-622 or SNS622-MC-DM1 for treatment of NSG mice was reduced to 1.9 mg/kg and the development and growth of metastatic nodules in the lungs after the treatment was assessed After 6 weeks of administration, the number of macroscopic metastatic nodules on the lung surface was determined."}, "H460 cells": {"system": "H460 cells", "assay": "MTS cell viability assay, H460", "format": "cell-based, human", "details": "H460, 24 hours", "procedure": "Human H460 cells were obtained from the American Type Culture Collection (ATCC; Manassas, Va., U.S.A.). The H460 cells were seeded at a density of 5,000 cells/well in 96-well plates and cultured in HG-DMEM (ThermoFisher Scientific, Waltham. Mass., U.S.A.; Catalog No. 11965-092) supplemented with 20 mM HEPES, 4 mM L-glutamine, 1 mM sodium pyruvate, 1× non-essential amino acids, 50 μg/ml gentamicin, and 10% fetal bovine serum (FBS)). Human MOLM-14 cells were obtained from Dr. Ashkan Emadi at University of Maryland (Baltimore. Md., U.S.A.). The MOLM-14 cells were seeded at a density of 5000 cells/well in 96-well plates and cultured in RPMI 1640 with 20% heat-inactivated FBS. The H460 and MOLM-14 cells were treated with naked antibodies or ADCs for 24 hours, starting at the time of cell seeding. By the end of experiment, the cell viability for both cell lines was determined quantitatively using CELL TITER 96 AQUOUS ONE SOLUTION cell proliferation assay, a colorimetric method for determining the number of viable cells (MTS; Promega, Madison. Wis., U.S.A.; Catalog No. G3582).\nFIG. 6 depicts the effects of linker and payload on cytotoxicity to cancer cell H460. […] The Log of the antibody concentration in nM is shown on the X axis.\nThe bioactivities of these SNS622 ADCs were examined using H460 cells. The cells were treated for 48 hours with these SNS622-MC-DM1s, or with SNS622 as control. Cell viability was evaluated at the end of the experiment using an MTS assay.\nSNS622-MC-vc-PAB-DM1 and SNS622-MC-MMAE were also synthesized under different initial DAR ratios of 2.5:1, 5:1 and 10:1 at fixed pH8. The 460 cells were treated for 72 hours with ADCs SNS622-MC-vc-PAB-DM1 at with OAR 2.5:1; 5:1; and 10:1, or SNS622-MC-MMAE at with DAR 2.5:1; 5:1; and 10:1. The cell viability and cell death were separately quantified with […] and lactate dehydrogenase (LDH) release assays. FIG. 8A depicts a graph of the MTA quantification results expressed as percentage of untreated control. FIG. 8B depicts a graph of the LDH assay results expressed as percentage of 512 nM DM1-elicited maximal LDH release. The Log of the antibody concentration in nM is shown on the X axis."}}, "note": "“Also recorded” adds a separate entry of the source."}
{"molecule": "B1", "values": [{"measurement": "Total number of metastatic nodules in group", "setting": "[1]", "result": "around 60"}, {"measurement": "Effect on H460 cell viability / growth (MTS)", "setting": "H460 cells", "result": "no changes in the viability of the H460 cells; also recorded: neither IgG1 nor SNS622 alone induced growth suppression of H460"}, {"measurement": "Effect on H460 cell viability / growth (MTS)", "setting": "H460 cells; listed as PAN-622", "result": "did not display any killing of the H460 cell line"}]}
